Assay results taken from the RNAGym collection of RNA variant scans (doi:10.7554/elife.90254).
Read counts are not given, so values of variants with three or more changes are uncertain.

B1: LINE1-mini (parent)
chain: GGCAGAGCUCAACACAGCGUGGCAAAGUGGCUGUGGCUAGACUGCC

Variants of: B1
Test: self-cleavage, relative activity (ratio to wild type); higher = more cleavage; in vitro, sequencing; the parent is a self-cleaving ribozyme

Variant | self-cleavage
GGCCGAGCUCAUCACAGCGUGGCAAAAUGGCUGUGGCUAGACUGCC [A4C A12U G27A] | 0.04
GGUAGAGCUCAACACAGCGGGGCAUAGUGGCUGUGCCUAGACUGCC [C3U U20G A25U G36C] | 0.05
GGUAGAGCUCAACACAGCGUGGCAAAGCGGGUAUGGCGACACUGCC [C3U U28C C31G G33A U38G G40C] | 0.02
GGCCGAGCUCGACACAGGGUGGCAAAGUGGCUGUGGCUAAACUGCC [A4C A11G C18G G40A] | 0.01
GGCCGGGCUCAACACAGCGUGGCAAAGUGGCCGUGGCUAGACUGCC [A4C A6G U32C] | 0.3
GGUAGAGCUCAACACAGCGUGGCAAAGUGGCUGAGGCUAGGCUGUC [C3U U34A A41G C45U] | 0.01
GGCCGAGCUCAACACUGCGUAGCAAAGUGGCUGUGGCUAGACUGCC [A4C A16U G21A] | 0.03
GGUAGAGCUCAACACAGCGUGGCAAAGUGGCUGUGGCAAGACUGGC [C3U U38A C45G] | 0.08
GGCCGCGCUCACCACAGAGUGGCAUGGUGGCUGUGGCUAAACUGCA [A4C A6C A12C C18A A25U A26G G40A C46A] | 0.01
GGUAGAGCUCAACACAGCGAUGCAAAGUGGCUGUGGCAAGACUGCA [C3U U20A G21U U38A C46A] | 0.09
GGUAGAGCUCAACACAGCGAGGCAAAGUGGCUGUGGUUAGACUGCC [C3U U20A C37U] | 0.06
GGCCGAGCUCAACACCGCGUGGCCAAGUGGCUGUGUCUAGACUGCU [A4C A16C A24C G36U C46U] | 0.15
GGCCGAGCUCAGAACAGCGUGGCGAAGUGGCUGUGGCUAGACAGCC [A4C A12G C13A A24G U43A] | 0.2
GGUAGAGCUCAACACAGCGUGGCAAAGCGGCUCUGGAUAGACUGCC [C3U U28C G33C C37A] | 0.03
GGCCGAGCUCACCUCAGCGUGGCAAAGUGGCUGUGGCUAGACUGCC [A4C A12C A14U] | 0.08
GGCCGAGCUCUAAACAGCGUGGCAAAGUGGCUUGGGCUAGCCUGCC [A4C A11U C13A G33U U34G A41C] | 0.01
GGCCGAGCUCCACACAACCUGGCAAAAUGGCAGUGGCUAGACUGCC [A4C A11C G17A G19C G27A U32A] | 0
GGCCGAGCUCAACACGGCGUGGCAAAGUGACUGAGGCUUGACUCCC [A4C A16G G30A U34A A39U G44C] | 0.01
GGCCGAGCUCAACUCAGCGUGGCAAAGUGGCUGUGGCGAUACUGCC [A4C A14U U38G G40U] | 0.07

Variant | self-cleavage
GGCCGGGCUCAACACAGUGUGGCGAAGUGGCUGUGGCUAGACUGCC [A4C A6G C18U A24G] | 0.18
GGCCGAGCUCAACGCAGCGUGGAAAAGUGGGUAUUGCUAGACUGCA [A4C A14G C23A C31G G33A G35U C46A] | 0.25
GGCCGAGCUCGACACAGCGUGACACAGUGGCUGUGGCUACACUACC [A4C A11G G22A A25C G40C G44A] | 0
GGCCGCGCUCAACACAGCGUGGCAAAGUGGCUGUGGCUUGACUGCC [A4C A6C A39U] | 0.02
GGCCGAGCUCAACCCAAGGUGGCAAAGUGGCUGUGGCUACACUGCC [A4C A14C G17A C18G G40C] | 0.05
GGCCGCGCUCAAAACAGCGUUGCAAAGUGUCUGUGGCUAGACUGCC [A4C A6C C13A G21U G30U] | 0.12
GGCCGAGCUCAACACGGCGUGGCAAAGUGGCGUUCGCUAGACUGCC [A4C A16G U32G G33U G35C] | 0.02
GGCCGAGCUCAACUCAGCGUGGCAAAGUGUGUGUGGCUAAACUGCC [A4C A14U G30U C31G G40A] | 0.09
GGCCGUGCUAAACACAGCGUGGCAAAGUGGCUGUGGCUAGACUGCC [A4C A6U C10A] | 0.03
GGCCGUGCUCAAGACAGCGUGGCAAAGUGGUGGUGGCUAGACUGCC [A4C A6U C13G C31U U32G] | 0.02
GGUAGAGCUCAACACAGCGUGGCAAAGGGACUGUGGCUGGACUGCC [C3U U28G G30A A39G] | 0.05
GGCCGAGCUCAACCCAGGGUGGCAAACUGGCUUUGGCUAGACUGCC [A4C A14C C18G G27C G33U] | 0.1
GGUAGAGCUCAACACAGCGUGGCAAAGUGGCGGUGGCUACACUGCC [C3U U32G G40C] | 0.03
GGCCGAGCUCAUCACAGCGUGGUAAACUGGCUGUGGCCAGACUGCC [A4C A12U C23U G27C U38C] | 0.01
GGCCGAGCUCCACACAGCGUGGCAAAGUGGAUAUGGCUAGAUUGCC [A4C A11C C31A G33A C42U] | 0.01
GGUAGAGCGCAAAAUAGCGUGGCAAAGUGGCUGUGGCUAGACUGCC [C3U U9G C13A C15U] | 0.03
GGUAGAGCUCAACACAGCGAGGCAAAGUGGCGGUGGCUAGACUGCC [C3U U20A U32G] | 0.06
GGUAGAGCUCAACACAGCGUGGCAAAGUGGCUGUGGCCAUACUGCC [C3U U38C G40U] | 0.08
GGUAGAGCUCAACACAGCGAGGCAAAGUGGCUGUGGCUAGAGUGCC [C3U U20A C42G] | 0.14

Variant | self-cleavage
GGCCGAGCUCUACACAACGUGGAAUAGUGGCUCAGGCCAGACUGCA [A4C A11U G17A C23A A25U G33C U34A U38C C46A] | 0
GGUAGAGCUCAACACAGCGUGGCAAAGUGGCUGCGGCUAGACUGCG [C3U U34C C46G] | 0.06
GGUAGAGCUCAACACAGCGUGGCAAAGUGGCUGCGGCUAGACUGCU [C3U U34C C46U] | 0.05
GGUAGAGCUCAACACAGCGUGGCAAAGUGGCUGUGGCUAGACCGAC [C3U U43C C45A] | 0.02
GGUAGAGCUCAACACAGCGUGGCAAAGCGGCUGUAACUAGACUGCC [C3U U28C G35A G36A] | 0.48
GGUAGAGCUCAACACAGCGUGGCAAAGUGGCUGUGGCCAGACUGAC [C3U U38C C45A] | 0.71
GGUAGAGCUCAACACAGCGUGGCAAAGUGGCUGUGGCCAGACUGGC [C3U U38C C45G] | 0.48
GGCCGAGCUCAACACGACGUGUCAAAGUGGCUGUGGCUAGACUGCC [A4C A16G G17A G22U] | 0.04
GGCCGUGCUCAACACAGCGUGGCAAAGUGGCUGUUGCUAGACUGCC [A4C A6U G35U] | 0.03
GGUAGAGCUCAACACAGCGUGGCAAAGAGGCUGUGGCUAGAAUGCC [C3U U28A C42A] | 0.15
GGUAGAGCUCAACACAGCGGGGCAAAGUGGCUGUGGCUAGACUGGC [C3U U20G C45G] | 0.08
GGCCGCGCUCAACACAGCAUGGCAAAGUGGCUGUGGUUAGACUGCU [A4C A6C G19A C37U C46U] | 0.1
GGCCGAGCUCCACACAGCGUGGCAAAGUGGCUGUGGCGAGACUUCG [A4C A11C U38G G44U C46G] | 0.03
GGUAGAGCUCAACACAGCGUGGCAAAGUGGCCGUGUCUAGACUGCC [C3U U32C G36U] | 0.05
GGCCGAGCUCAACACCUCGUGGCAAAUUUGCUGUGGCUAGACUGCC [A4C A16C G17U G27U G29U] | 0.27
GGCCGAGCUCUACACAGCCGGGCAAAGUGGCUGUGGCUAGACUCCC [A4C A11U G19C U20G G44C] | 0
GGCCGAGCUCACCACAGCGUGGCCAAGUGGCUGUGGCUAGACUGCC [A4C A12C A24C] | 0.02
GGCCGAGCUCACCACAGGGUGGCAAAUUGGCUGUGGCUAGACUGCC [A4C A12C C18G G27U] | 0.02
